Measured values reported in PubChem BioAssay AID463173 (ICCB-Longwood Screening Facility, Harvard Medical School, 2010).
Out of some 52,000 compounds screened, about 4,300 (8.3%) were called active. Cut-off read from the data, not from the text of the source: active = survival mostly below about 52% (no sharp cut-off); inactive = mostly above about 56%. The list shows a part of the results.

These molecules were tested on DeltatarO mutant (assay: growth inhibition of S. aureus wild type versus tarO mutant, primary screen, teichoic acid synthesis inhibitors, RN4220, OD600 (AID 463173)). Settings: OD600, 18 h, hits give low values, screened at 18.75 µg/mL (by protocol).

| SMILES | survival |
| --- | --- |
| CN1CCc2c(sc(NC(=O)CSc3ccc(F)cc3)c2-c2nc3ccccc3s2)C1 | inactive: 122% |
| CCOC(=O)C1CCN(CN2C(=O)CCC2=O)CC1 | inactive: 94% |
| CCN1C(C(=O)c2ccccc2)=C(OC(=O)COc2ccc(OC)cc2)c2ccccc2S1(=O)=O | inactive: 60% |
| COc1ccc2c(c1)c(CC(=O)Nc1ccc(C(C)=O)cc1)c(C)n2C(=O)c1ccc(Cl)cc1 | inactive: 70% |
| CCOC(=O)CSc1nnc(-c2ccc(S(=O)(=O)NCc3cccs3)cc2)o1 | inactive: 80% |
| Cc1ccc(NC(=O)c2oc3ccccc3c2NC(=O)c2ccc(F)c(F)c2)cc1 | inactive: 89% |
| COc1ccc(S(=O)(=O)NCCS(=O)(=O)N2CCN(c3ccccc3)CC2)cc1OC | inactive: 86% |
| CCc1ccc(NC(=O)CSc2nc3c(oc4ccccc43)c(=O)n2-c2cccc(C)c2)cc1 | inactive: 76% |
| O=C(Nc1nc2ccc(Cl)cc2s1)c1cc(=O)c2ccccc2o1 | active: 32% |
| CCc1cccc(CC)c1NC(=O)C(Cc1ccccc1)NS(=O)(=O)c1cccc2nsnc12 (centres undefined) | inactive: 68% |
| COc1ccccc1-n1c(=O)n(C)c2c(C(N)=O)nc(-c3cc(OC)c(OC)c(OC)c3)nc21 | inactive: 91% |
| COc1cc2c(cc1NC(=O)C(C)Oc1ccccc1)oc1ccccc12 (centres undefined) | active: -1% |
| O=C(NCc1ccc(Cl)cc1Cl)c1cccc(N2CCCS2(=O)=O)c1 | inactive: 46% |
| CCn1cc2nc(SCc3cccc(C(F)(F)F)c3)n(Cc3ccc(C)cc3)c(=O)c2n1 | inactive: 75% |
| Cc1cc(F)ccc1NC(=O)c1c(C)oc2c1C1=NCCN1C=N2 | inactive: 102% |
| Cc1cc(Br)ccc1NC(=O)C1CC(O)CN1C(=O)OCc1ccccc1 (centres undefined) | inactive: 93% |
| COc1ccc(-c2cc(C(=O)Nc3cnn(Cc4ccc(F)cc4)c3)no2)cc1OC | inactive: 63% |
| CCC(C)c1ccc(OCC(=O)Nc2ccc(-c3nc4ncccc4o3)cc2)cc1 (centres undefined) | inactive: 44% |
| CC(C)Oc1ccc(C(=O)N2CCCCC2CCN2CCCCC2)cc1 (centres undefined) | inactive: 76% |
| CCOC(=O)c1ccc(NC(=O)N2C3CCC2CC(NC(=O)NC24CC5CC(CC(C5)C2)C4)C3)cc1 (centres undefined) | inactive: 93% |
| CCOC(=O)c1sc(N2C(=O)c3oc4ccc(F)cc4c(=O)c3C2c2ccc(O)cc2)nc1C (centres undefined) | inactive: 75% |
| CCC1CN(C(=O)Nc2cc(Cl)ccc2C(=O)OC)c2ccccc2S1 (centres undefined) | inactive: 129% |
| O=C1CCCS(=O)(=O)CC1 | inactive: 94% |
| Cc1ccc(C)c(Cn2c(=O)n(CCCC(=O)NCc3ccc4c(c3)OCO4)c(=O)c3sccc32)c1 | inactive: 74% |
